# Assay results published in PubChem BioAssay AID1347165 (National Center for Advancing Translational Sciences (NCATS), 2019).
# Values joined by “and” are separate entries in the source; they are usually repeats but may differ in a detail not shown here. Equal values may be shown once. The whole screen tested about 220,000 compounds, of which about 5,700 (2.6%) were called active. Inconclusive means that the source gave no clear call. Such entries were picked first, then a sample of the others. Calls come from the whole dose curve; as a rule, active = well fitted inhibition curve with a large enough effect; inconclusive = small, poorly fitted or top-dose-only effect; inactive = no such curve, though single readings can be large or run the other way. Potencies of inconclusive entries are doubtful fits and often do not repeat.
# Biological target: Lysine-specific demethylase 5B (Homo sapiens) (UniProt Q9UGL1)
# Chain of UniProt Q9UGL1 (Q9UGL1 whole entry, looked up): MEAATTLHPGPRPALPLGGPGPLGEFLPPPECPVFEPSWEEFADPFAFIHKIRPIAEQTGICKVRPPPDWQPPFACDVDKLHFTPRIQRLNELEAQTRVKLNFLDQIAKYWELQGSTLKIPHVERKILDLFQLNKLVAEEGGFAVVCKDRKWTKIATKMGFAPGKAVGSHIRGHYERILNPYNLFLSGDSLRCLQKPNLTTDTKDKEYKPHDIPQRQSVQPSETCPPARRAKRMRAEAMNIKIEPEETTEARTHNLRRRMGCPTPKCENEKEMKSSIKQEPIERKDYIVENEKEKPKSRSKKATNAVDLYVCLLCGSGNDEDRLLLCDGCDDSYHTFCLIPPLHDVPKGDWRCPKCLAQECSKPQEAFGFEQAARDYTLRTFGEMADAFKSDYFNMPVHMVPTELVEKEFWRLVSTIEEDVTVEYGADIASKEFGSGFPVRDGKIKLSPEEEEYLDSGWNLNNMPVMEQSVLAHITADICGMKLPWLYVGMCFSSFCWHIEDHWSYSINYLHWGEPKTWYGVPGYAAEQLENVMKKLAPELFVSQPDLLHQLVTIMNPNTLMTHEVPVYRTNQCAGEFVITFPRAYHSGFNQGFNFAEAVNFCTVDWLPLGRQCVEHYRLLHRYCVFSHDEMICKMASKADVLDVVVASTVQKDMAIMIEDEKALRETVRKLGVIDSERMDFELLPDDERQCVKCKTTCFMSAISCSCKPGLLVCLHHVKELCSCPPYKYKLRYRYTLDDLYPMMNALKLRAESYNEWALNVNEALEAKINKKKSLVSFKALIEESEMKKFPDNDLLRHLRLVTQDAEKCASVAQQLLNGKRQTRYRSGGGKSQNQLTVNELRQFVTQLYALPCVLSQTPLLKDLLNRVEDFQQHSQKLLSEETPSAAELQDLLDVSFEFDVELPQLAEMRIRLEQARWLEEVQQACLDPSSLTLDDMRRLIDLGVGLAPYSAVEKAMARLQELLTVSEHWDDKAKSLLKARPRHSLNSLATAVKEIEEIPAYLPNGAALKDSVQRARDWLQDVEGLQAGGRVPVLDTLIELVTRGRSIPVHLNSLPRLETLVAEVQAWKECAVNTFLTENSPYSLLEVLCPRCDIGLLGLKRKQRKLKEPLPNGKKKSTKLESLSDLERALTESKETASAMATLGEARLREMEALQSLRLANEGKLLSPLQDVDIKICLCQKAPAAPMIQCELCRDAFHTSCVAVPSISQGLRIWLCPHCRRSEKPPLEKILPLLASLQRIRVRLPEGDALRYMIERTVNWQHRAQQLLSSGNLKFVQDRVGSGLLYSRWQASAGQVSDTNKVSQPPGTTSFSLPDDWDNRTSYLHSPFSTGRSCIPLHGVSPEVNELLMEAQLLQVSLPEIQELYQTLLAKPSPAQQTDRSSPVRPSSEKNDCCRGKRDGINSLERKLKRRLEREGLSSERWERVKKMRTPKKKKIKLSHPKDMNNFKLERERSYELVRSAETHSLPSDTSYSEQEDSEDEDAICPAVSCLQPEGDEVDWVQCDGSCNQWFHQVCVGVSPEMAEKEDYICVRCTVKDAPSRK
# Test: Primary screen for KDM5B Histone Demethylases FDH-coupled qHTS; note: nearly all actives have a fitted effect of over 70% in size
# Details: FDH-coupled NADH fluorescence (FDH is formaldehyde dehydrogenase); series mostly up to 57.7 µM
# How it was run: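 Inhibition is measured as reduced NADH fluorescence generation from FDH coupling to formaldehyde release. Truncated KDM5BΔAP at 200 nM final acts on H3K4me3 peptide (12.5 µM in substrate mix) in pH 7.5 HEPES buffer with Tween-20, 30 min, room temperature.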
# Potency is the fitted concentration of half-maximal effect; tags give direction and shape of the fitted curve.
row,Structure (SMILES),Potency
1,COc1ccc(CC(=O)Nc2ccc3ncnc(N4CCCC4)c3c2)cc1Cl,"inconclusive: 28.2 µM [inhibitor, single point]"
2,Cn1ccc2c(OCC(=O)NCc3ccccc3)cccc2c1=O,"inconclusive: 28.2 µM [inhibitor, partial curve, poor fit]"
3,O=C(NCC1CNCCOC1)c1ccc2nc(-c3ccc(F)cc3)cn2c1 (stereo not given),active: 28.2 µM
4,Cc1ccc(OCC(=O)Nc2ccc(Cl)c(-c3nc4ncccc4o3)c2)c(C)c1,"inconclusive: 35.5 µM [inhibitor, partial curve, poor fit]"
5,Oc1ccccc1-c1ccnc2cc(-c3ccccc3)nn12,"inconclusive: 20 µM [inhibitor, partial curve, poor fit]"
6,Cc1c(-c2ccccc2F)[nH]c2ccc(CNC(=O)CCN3CCCO3)cc12,active: 25.1 µM
7,Cc1ccc(-n2c(SCC(=O)Nc3ccc(Cl)cc3)nc3c(=O)[nH]cnc32)cc1,inactive
8,Cc1ccc(-c2cc(C(=O)NCC3CCCO3)c3ccccc3n2)c(C)c1 (stereo not given),"inconclusive: 28.2 µM [inhibitor, single point]"
9,COc1cc(NC(=O)Nc2cccc(-c3noc(C)n3)c2)cc(OC)c1OC,"inconclusive: 14.1 µM [inhibitor, partial curve, poor fit]"
10,O=c1cc(C(F)(F)F)[nH]c(=S)n1-c1ccccc1,"inconclusive: 28.2 µM [inhibitor, single point]"
11,CCCn1c(CN2CCCCC2)nc2cc(NC(=O)c3cc(OC)c(OC)c(OC)c3)ccc21,inactive
12,CCOC(=O)c1ncccc1NC(=O)CC(=O)Nc1cccnc1C(=O)OCC,"inconclusive: 39.8 µM [inhibitor, partial curve, poor fit]"
13,CCc1ccc(NC(=O)CN(c2cccc(C)c2C)S(C)(=O)=O)cc1,inactive
14,O=C(c1ccc(C(F)(F)F)cc1)N1CCC2(C1)C(=O)N(CCc1ccccc1)c1ccccc12 (stereo not given),inactive
15,CCCNC(=O)CNC(=O)c1nn(Cc2ccccc2)c(=O)c2ccccc12,inactive
16,CNCc1ccc(F)cc1,inactive
17,O=C(Nc1cccc(-c2nnc3n2CCCC3)c1)c1cc(-c2ccccc2)n[nH]1,"inconclusive: 28.2 µM [inhibitor, single point]"
18,COc1ccc2cc(C(=O)N3CCN(S(=O)(=O)c4ccc(C)cc4C)CC3)c(C)nc2c1,inactive
19,CC(C)(C)C(=O)NC1CCN(c2nc3ncccc3o2)CC1,active: 31.6 µM and active: 25.1 µM
20,N#Cc1c(N)n(-c2cccc(Cl)c2)c2nc3ccccc3nc12,"inconclusive: 17.8 µM [inhibitor, partial curve, poor fit]"
21,Cc1nc2sc3c(c2c2nc(C(=O)NCc4ccncc4)nn12)CC(C)(C)OC3,"inconclusive: 8.91 µM [inhibitor, full curve, poor fit]"
22,N#Cc1ccc(NCCNC(=O)C2CCCCC2)nc1,inactive
23,Cn1c2ccccc2c2nnc(NN)nc21,"inconclusive: 39.8 µM [inhibitor, single point]"

row,Structure (SMILES),Potency
1,O=c1cc(CSc2nnnn2-c2ccccc2)[nH]n1-c1ccc(F)cc1,inactive
2,COC(=O)Nc1ccc(CNCc2ccccn2)cc1,inactive
3,O=C(NC1CC1)C(=O)N1CCN(C(=O)c2cc3ccccc3[nH]2)CC1,inactive
4,COc1ccc(CNc2oc(-c3ccco3)nc2C#N)cc1,"inconclusive: 28.2 µM [inhibitor, partial curve, poor fit]"
5,CCOC(=O)c1cccc(NC(=O)c2cc3c(-c4cccc(OC)c4)nn(C)c3s2)c1,"inconclusive: 31.6 µM [inhibitor, partial curve, poor fit]"
6,Cc1noc(-c2cn(C3CCN(C(=O)c4ccc(Cl)s4)C3)nn2)n1 (stereo not given),inactive
7,Cc1c[nH]cc1C(=O)OCC#Cc1ccccc1,inactive
8,NC(=O)c1nc(Nc2ccccc2)sc1NC(=O)c1ccccc1Br,"inconclusive: 28.2 µM [inhibitor, single point]"
9,C=CCNC(=O)CN1CCN(c2ccnc3c(F)ccc(F)c23)CC1,inactive
10,CN(C)C[C@@H]1CN(c2ncccn2)C[C@H]1NC(=O)COc1ccc(Cl)cc1,active: 28.2 µM
11,CCN(C(=S)Nc1cc(S(=O)(=O)N(C)C)ccc1C)c1cccc2ccccc12,"inconclusive: 25.1 µM [inhibitor, partial curve, poor fit]"
12,CCN1c2cc(C(=O)Nc3cccc(Cl)c3)ccc2C(=O)N2CCCCC21 (stereo not given),"inconclusive: 25.1 µM [inhibitor, partial curve, poor fit]"
13,O=C(NC1CCCC1)c1cc(Nc2cccc(C(F)(F)F)c2)nc2ccccc12,"inconclusive: 31.6 µM [inhibitor, partial curve, poor fit]"
14,CCCCc1c(C)nc2c(-c3ccc(OC)cc3)c(C)[nH]n2c1=O,"inconclusive: 5.62 µM [inhibitor, partial curve, poor fit]"
15,Cc1noc(C)c1-c1cnc2n[nH]c(-c3ccccc3)c2n1,"inconclusive: 35.5 µM [inhibitor, partial curve, poor fit]"
16,O=C(Cn1cccc1-c1nc(-c2ccccc2)no1)NCCc1ccc(Cl)cc1,inactive
17,CCCCNC(=O)CCCn1c(=O)c2ccccc2n(Cc2cccc(Cl)c2)c1=O,"inconclusive: 35.5 µM [inhibitor, single point]"
18,Cc1oc2cc(OCC(=O)NCc3cccs3)ccc2c(=O)c1Oc1ccccc1,"inconclusive: 14.1 µM [inhibitor, partial curve, poor fit]"
19,Cn1c(CN2CCCCC2)nc2cc(NC(=O)c3ccccc3Cl)ccc21,"inconclusive: 0.891 µM [inhibitor, full curve, poor fit]"
20,Cc1ccc(-c2cc(C(=O)Nc3ccc(F)cc3)c3ccccc3n2)o1,"inconclusive: 28.2 µM [inhibitor, partial curve, poor fit]"
21,COCCNC(=O)c1ccc2c(c1)N(C)C(CC(=O)N1CCC(O)CC1)CO2 (stereo not given),active: 28.2 µM
22,CCOc1ccc(/C=C/c2nc(C#N)c(N3CCC(C(N)=O)CC3)o2)cc1,"inconclusive: 1.78 µM [inhibitor, partial curve, poor fit]"
